Screen size: about 50,000 compounds; about 800 (1.6%) showed an effect of 50% or more. The list shows a part of the results.

For the experiment, the target named is Bcl-2-like protein 10 (Homo sapiens) (UniProt Q9HD36). Put plainly: Phenotype converters, Bcl-B/TR3 peptide binding displacement, primary biochemical FP (AID 1240).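 Further: 0% = Bcl-B with tracer peptide and DMSO and 100% = tracer peptide lacking Bcl-B.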 To be noted: GST-Bcl-B / FITC-TR3 peptide fluorescence polarization; stronger effect = higher value; compound at 3.75 mg/L. In general terms: Fluorescence polarisation rises when a labelled molecule tumbles more slowly, as on binding a larger partner.
UniProt Q9HD36, sequence (Q9HD36 whole entry, looked up): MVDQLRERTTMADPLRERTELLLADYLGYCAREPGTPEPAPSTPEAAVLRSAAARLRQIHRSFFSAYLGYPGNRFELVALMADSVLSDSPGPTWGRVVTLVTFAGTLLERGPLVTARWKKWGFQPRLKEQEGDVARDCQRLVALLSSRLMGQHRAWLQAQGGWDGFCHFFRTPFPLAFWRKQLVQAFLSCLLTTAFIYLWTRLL
As to `CC(=O)C1C(=O)c2c(cccc2[N+](=O)[O-])C1=Nc1ccc(N=Cc2cc(Br)ccc2O)cc1` (stereo not drawn), the displacement worked out at 5.3%.
Then `COC(=O)c1cc(C(=O)N2CCN(c3ccccc3)CC2)cc([N+](=O)[O-])c1`, with 5.2%.
As for `Cc1ccccc1OCCSc1nc2ccc(Br)cc2[nH]1`, the figure is 12.3%; as for `CC(O)c1c(OCc2ccccc2)ncnc1OCc1ccccc1` (stereo not drawn), 17.4%; as for `O=C(NCc1ccc(Cl)cc1)c1ccc(I)cc1`, 9.9%.
Consider `COc1ccccc1NC(=O)CC1CCCCC1`, for which the displacement is 18.5%.
Then `CCc1ncc(C(O)c2ccccc2)n1C` (stereo not drawn), with 9.8%.
Then `COc1ccc(Cc2nnc(NC(=O)Nc3ccccc3)s2)cc1`, with 11.9%; and `CC(=O)c1cccc(NC(=O)CC2S/C(=N\N=C\c3ccccc3)NC2=O)c1` (stereo not drawn), with 20.7%; and `CC(C)CC(NC(=O)/C(=C\c1ccc(Cl)cc1)NC(=O)c1ccco1)C(=O)OCc1ccccc1` (stereo not drawn), with -8.5%.
As for `COc1ccc(C(=O)Nc2ccccc2C(=O)NC(C(=O)Nc2cccc(C)c2)C(C)C)cc1` (stereo not drawn), the figure is 8.7%.
For the compound `Cc1ccc(-n2nc3cc(C)c(NC(=O)c4ccc5c(c4)OCCO5)cc3n2)cc1`, the displacement was found to be 0.4%.
In the case of `Cc1ccc2c(c1)C(c1ccccc1Br)CC(=O)N2` (stereo not drawn), the displacement was 8.6%.
Take `O=[N+]([O-])c1cc(-n2ncnc2-c2cccc(Br)c2)ccc1Cl`: the displacement is -5.8%.
In the case of `CCOC(=O)COc1ccc(/C=N\n2cnnc2)cc1OC`, the displacement was found to be 14.5%.
Then `CCOc1cc(/C=C2/C(=O)NC(=O)N(c3ccc(C)cc3)C2=O)ccc1OC`, with -0.2%; and `COC(=O)c1ccc(C(=O)OC)c(NC(=O)COc2cccc(Cl)c2)c1`, with 1.2%; and `O=C(O)/C(=C\c1cccc([N+](=O)[O-])c1)NC(=O)c1ccccc1`, with 12.4%.
As for `CCOC(=O)C1=C(C(=O)OCC)SC(=C2C(=S)C(C)(C)N(C(=O)CC)c3ccc(OCC)cc32)S1`, the displacement is -0.4%.
Then `O=C(COc1ccc2ccccc2c1)Nc1ccc(NC(=O)c2ccco2)c(Cl)c1`, with -1.7%; and `O=C1CC(N2CCC(O)CC2)C(=O)N1c1ccc(Cl)cc1` (stereo not drawn), with -4.9%; and `COc1ccc(CC(=O)Nc2ccccc2F)cc1OC`, with 2.3%.
Then `O=c1[nH]c2ccccc2n1CCCN1CCN(C(c2ccccc2)c2ccccc2)CC1`, with 13.1%; and `O=C(Nc1ccccc1-c1ccccc1)c1ccc(N2C(=O)c3ccc([N+](=O)[O-])cc3C2=O)cc1`, with 5.3%.
In the case of `O=C1NN(c2cccc(Cl)c2)C(=O)/C1=C\c1ccc(O)cc1`, the displacement came to 12.1%.
Then `CC(C)(C)c1ccc2c(c1[N+](=O)[O-])C(=O)c1ccccc1C2=O`, with 3.5%; and `O=C(Nc1ccc2c(c1)C(=O)N(c1ccccc1)C2=O)c1ccco1`, with -1.1%.
As for `CCOC(=O)c1c(C)n(CC(O)c2ccc([N+](=O)[O-])cc2)c2c1cc(O)c1ccccc12` (stereo not drawn), the figure is 6.8%; as for `Cc1ccc(-c2cc(C(=O)N3CCC(Cc4ccccc4)CC3)c3ccccc3n2)o1`, -8.3%.
Then `CCOc1ccc(C(=O)Nc2ccc(O)c(-c3nc4ccccc4o3)c2)cc1[N+](=O)[O-]`, with 11%; and `O=C(CC1Sc2ccccc2NC1=O)Nc1ccc(N2CCOCC2)cc1` (stereo not drawn), with -6.6%.
As for `O=C(COc1ccccc1)Nc1ccc2nn(-c3ccc(Cl)cc3)nc2c1`, the displacement is 6.3%.
In the case of `CCOC(=O)c1cc(CC)sc1NC(N)=O`, the displacement is 9.5%.
Take `COc1cc(/C=C2/SC(=S)N(c3ccccc3)C2=O)ccc1Oc1nc(N2CCOCC2)nc(N2CCOCC2)n1`: the displacement was 46.7%.
With `COc1cc(/C=C2\C(=O)NC(=O)N(c3ccc(Cl)cc3)C2=O)ccc1OCc1ccc(C(=O)O)cc1`, the displacement is -51.8%.
Then `CC(=O)c1ccc(Oc2cc(-c3ccccc3)nc(-c3ccccc3)n2)cc1`, with -4.5%; and `COc1ccc(OC)c(N(CC(=O)N2CCCC2)S(C)(=O)=O)c1`, with 1.7%.
With `C=C(C)c1cccc(C(C)(C)NC(=O)N2CCN(C/C=C/c3ccccc3)CC2)c1`, the displacement stood at 10%.
As for `O=C(NCc1ccncc1)c1ccc(Br)o1`, the displacement came out at 9.8%.
For `Cn1c(-c2ccc(C=O)s2)nc2c3ccccc3c3ccccc3c21`, the displacement stood at 15.4%.
As for `Cc1ccccc1CNC(=O)CN(c1cccc([N+](=O)[O-])c1)S(=O)(=O)c1ccccc1`, the figure is -2.2%.
Then `CC(=O)C(Sc1ccc([N+](=O)[O-])cc1)C(C)=O`, with 0.5%.
Then `Clc1ccccc1-n1ncnc1-c1cccc(Br)c1`, with -1.3%.
Regarding `CCOC(=O)C1=C(C)N=c2s/c(=C/c3ccc(I)o3)c(=O)n2C1c1ccccc1OC` (stereo not drawn), the displacement is 14.5%.
As for `CC(=O)c1ccc(N2C(=O)c3c(Cl)c(Cl)c(Cl)c(Cl)c3C2=O)cc1`, the figure is 15.1%; as for `CN(C)CCC(=O)c1ccc(O)cc1`, 3.9%; as for `Cc1ccc(C(=O)Nc2c(Cl)cccc2Cl)cc1[N+](=O)[O-]`, -1.9%.
As to `CC(C)(C)C1=C2OCC3COC2(O3)C(C(C)(C)C)=C(O)C1=O` (stereo not drawn), the displacement came out at 5.6%.
Then `COc1ccc(N(CC(=O)NCc2ccccc2)S(=O)(=O)c2ccccc2)cc1Cl`, with 2.6%; and `COC(=O)C1=NNC2C(=O)N(c3cccc(Cl)c3C)C(=O)C12` (stereo not drawn), with 11.5%.
As for `COc1ccc(C(CC(=O)C(C)C)C2C(=O)c3ccccc3C2=O)cc1` (stereo not drawn), the figure is -7.3%.
Then `CCOc1ccc(C(O)c2cnc(C(C)C)n2C)cc1` (stereo not drawn), with -0.7%; and `CC(C)Oc1ccc(C(=O)Nc2cccc3c2C(=O)c2ccccc2C3=O)cc1`, with 9.6%.
For the compound `CCOC(=O)C1=C(O)/C(=C/c2ccc(O)cc2)SC1=Nc1ccc([N+](=O)[O-])cc1`, the displacement is -9.8%.
As for `Cc1ccc(OCC(=O)NCCCN(C)C)c(Br)c1`, the figure is -9.2%; as for `CN(C1=NC(=O)/C(=C\C=C\c2ccccc2)S1)c1ccc(O)cc1`, 11%.
Turning to `Cc1nn(-c2ccccc2)c2c1C(c1ccc([N+](=O)[O-])cc1)C(C#N)=C(N)O2` (stereo not drawn), the displacement is 1.4%.
In the case of `O=c1c2c(nc3cc(-c4cccc(Cl)c4)[nH]n13)CCC2`, the displacement is 0.6%.
Regarding `O=S(=O)(O)c1ccc(NS(=O)(=O)c2cccc3cccnc23)cc1`, the displacement turned out to be 23%.
Turning to `Cc1ccc(NC2=CC(c3ccc4c(c3)OCO4)N(c3ccc(C)cc3)C2=O)cc1` (stereo not drawn), the displacement was 19.1%.
Then `COc1ccc(N2C(=O)C(Cl)=C(Nc3ccccc3F)C2=O)cc1`, with -5%; and `COc1cc2c(cc1NC(=O)c1ccccc1[N+](=O)[O-])oc1ccccc12`, with 0.9%.
Then `Cc1ccc(C)c(NCc2cccnc2)c1`, with 3.2%; and `O=C(NCc1cccs1)c1nn2c(C(F)(F)F)cc(-c3ccco3)nc2c1Cl`, with -11.6%.
As for `CCOC(=O)c1c(-c2ccccc2)csc1NC(=O)c1ccc(C)cc1`, the figure is -5.7%; as for `COc1ccccc1Nc1nc(N2CCOCC2)ncc1F`, 6.7%; as for `CCCC(=O)Nc1ccc(O)c(-c2nc3cc(C)ccc3o2)c1`, 10.6%.
Turning to `CC(=O)Nc1ccc(NS(=O)(=O)c2cccc([N+](=O)[O-])c2)cc1`, the displacement stood at 12%.
Consider `NC1=NC(=O)/C(=C/c2ccc(Cl)cc2)S1`, for which the displacement was found to be 57.4%.
Then `CC(C)CN1C(=O)c2ccc(C(=O)Nc3ccccc3O)cc2C1=O`, with 14.5%; and `Cc1ccc(S(=O)(=O)NCCNc2ccc([N+](=O)[O-])cc2Cl)cc1`, with 10.7%; and `COC(=O)c1c(NC(=O)CC2SC(N)=NC2=O)sc2c1CCCC2` (stereo not drawn), with -19.7%.
In the case of `CCOC(=O)C1=C(C)NC2=C(C(=O)c3ccccc32)C1c1ccc(OC)c(OC)c1` (stereo not drawn), the displacement is 0.7%.
Then `O=C1C=CC(=O)N1c1cccc(Cl)c1`, with 16.4%; and `O=[N+]([O-])c1ccc(-c2ccc(C(=S)N3CCCCC3)o2)cc1`, with 6.6%; and `CCCCC1CCC(C(=O)Nc2nc3ccccc3n2C)CC1` (stereo not drawn), with -9.1%.
On to `COc1ccc(N2C(=O)/C(=C\c3ccc(-c4ccccc4Cl)o3)SC2=S)cc1`, for which the displacement amounted to 15.9%.
Consider `O=C(Cc1ccccc1)Nc1ccc2c(c1)oc1ccccc12`, for which the displacement was -4%.
As for `C#CCOc1nc(OCC#C)nc(OCC#C)n1`, the figure is 13.9%; as for `CC1=C(C(=O)Nc2ccccc2)C(c2cccs2)C(C#N)=C(SCC(=O)c2ccc(F)cc2)N1` (stereo not drawn), 7.2%; as for `O=C1SC(Nc2ccc(-c3ccccc3)cc2)C(=O)N1c1ccccc1` (stereo not drawn), -3.2%.
As for `COc1ccccc1CC(=O)N1CCN(c2cccc(Cl)c2)CC1`, the figure is -1.8%; as for `O=C(NC(=S)N1CCOCC1)c1ccc(Br)cc1`, 5.8%; as for `CC1=NN(c2ccccc2)C(=O)/C1=C/c1cccc(OC2CSC2)c1`, 7%.
Then `Cc1c(Cl)cccc1NC(=O)Cn1cnc([N+](=O)[O-])n1`, with 11.8%.
Turning to `Cn1cccc1CN1CCN(C(=O)c2cccs2)CC1`, the displacement was -2.6%.
For `CCN(CC)CN1C(=O)C(=O)/C(=C(\O)c2ccc(Cl)cc2)C1c1ccccc1F` (stereo not drawn), the displacement was -3.3%.
`O=C(Nc1ncc(Cc2ccc(Cl)cc2Cl)s1)c1ccc([N+](=O)[O-])cc1`: the displacement was determined as 3.4%.
For the compound `CCN(CC)c1ccc(Nc2nc(-c3c(C)nc4sccn34)cs2)cc1`, the displacement was -16.4%.
As to `COc1ccccc1OCCOc1ccccc1/C=C1/SC(=S)N(C)C1=O`, the displacement turned out to be 24.9%.
As to `CCN(CC)C(=O)CSc1nc2ccccc2s1`, the displacement is -4.5%.
As for `O=C(CSc1nnnn1-c1ccccc1)Nc1ccccc1`, the figure is -0.3%.
Then `Cc1ccccc1OCC(=O)Nc1ccc(Cl)cc1C(F)(F)F`, with 9.2%.
As for `O=C(O)C1CCCCC1C(=O)Nc1cccnc1` (stereo not drawn), the figure is -11.6%; as for `O=C(N/N=C\c1cc([N+](=O)[O-])ccc1N1CCOCC1)c1ccccn1`, -17.6%.
With `CCOc1ccc(N2C(=O)CC(NCc3ccc(S(N)(=O)=O)cc3)C2=O)cc1` (stereo not drawn), the displacement was determined as 1.8%.
In the case of `N#Cc1c(N)nc2sc(C(=O)Nc3ccccc3)c(N)c2c1-c1ccco1`, the displacement was 6.5%.
Consider `COc1ccc(C2/C(=C(\O)c3ccc(Cl)cc3)C(=O)C(=O)N2CCCn2ccnc2)cc1` (stereo not drawn), for which the displacement worked out at 0.8%.
With `COC(=O)C1=C(C(=O)OC)N(c2ccccc2)/C(=C2/C(=S)C(C)(C)Nc3ccccc32)S1`, the displacement was found to be 8.3%.
As for `COC(=O)c1ccc(NC(=O)c2ccc(OC)cc2)cc1`, the figure is -1.9%; as for `O=C(COC(=O)c1cc2ccccc2o1)c1ccccc1`, -13.5%; as for `CCOC(=O)c1c(C)nc2ccc(Cl)cn12`, 4.5%.
Then `CCCCNC(=O)c1nn2cc(Br)cnc2c1Br`, with -5.4%; and `CCCCNCCCCOc1cccc(OC)c1`, with 4.8%.
As for `O=c1oc(-c2ccccc2)nc2c1cnn2-c1ccccc1`, the figure is 3.9%; as for `Cc1ccc(NC(=O)c2c(NC(=O)C(F)(F)F)sc3c2CCC3)c(C)c1`, -9.2%; as for `O=c1c2ccccc2[nH]c(=S)n1Cc1ccccc1`, -8.4%.
With `COc1cc(/C=c2\sc3nc4c(C)cccc4n3c2=O)ccc1O`, the displacement was found to be 29.5%.

Values taken from PubChem BioAssay AID1240 (Sanford-Burnham Center for Chemical Genomics, 2008).
